# Results taken from PubChem BioAssay AID504444 (National Center for Advancing Translational Sciences (NCATS), 2011).
# The campaign covered roughly 360,000 compounds. About 7,500 (2.1%) were called active. Inconclusive results (about 20%) are left out. The call rests on the fitted dose curve; in most records, active means well fitted inhibition curve with a large enough effect; inconclusive means small, poorly fitted or top-dose-only effect, or effect the other way; inactive means flat fitted curve, though single readings scatter. The entries are a selection whose mix differs from that of the whole data set. More than one record can exist for a structure, and the calls need not agree. Square brackets hold non-standard residues; d marks the D form. Peptide text beside a SMILES is read from it. * marks the point of attachment. ξ: configuration not given here. Boc = CC(C)(C)OC(=O)*; ξP = O=C(O)C1CCCN1; Sar = CNCC(=O)O
# Assay: Nrf2 qHTS screen for inhibitors; further: nearly all actives have a fitted effect of over 60% in size
# Details: A549 ARE-Fluc reporter, luciferase luminescence, 18-24 h; series mostly up to 46 µM; activity change, negative = inhibition: at the top concentration
# In short: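 Cells were seeded and rested 2 h, then exposed to compounds for 18-24 h. CellTiter-Fluor was read first as a viability measure. BugLite was added 15 min before the final luminescent read of ARE-luciferase activity in A549 cells.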
# On the % scale 0 is the no-effect control and ±100 the full control effect; potency means the concentration at half of the fitted maximal effect.
SMILES,"activity change, negative = inhibition",Potency
CCOC(=O)CN(C)C(=O)C1CCCN1C(=O)OC(C)(C)C (stereo not given) (Boc-[ξP]-[Sar]-OEt),inactive: 14.2%,–
COc1ccccc1CNC(=O)c1nn(-c2ccc(C)cc2)c(=O)c2c1c1ccccc1n2C,inactive: 7.01%,–
O=C(Nc1nnc(S(=O)(=O)N2CCCC2)s1)c1ccccc1Cl,inactive: 12.9%,–
CCOc1cc(C2CC(=O)N3CN(C4CCCCC4)CSC3=C2C#N)ccc1O (stereo not given),inactive: 7.06%,–
Cc1cc(C)cc(NC(=O)CCCn2nc(C)c3c(C)n(-c4ccccc4)nc3c2=O)c1,inactive: -1.9%,–
CCCCNc1nc2c(c(=O)n(Cc3ccccc3)c(=O)n2C)n1C,inactive: -18%,–
O=C1O[C@@H]([C@H](O)CO)C(O)=C1O,inactive: 1.41%,–
CC(C)(C)[C@H]1C=C(C(=O)NCc2ccccc2)O[C@@H](OCc2ccc(CO)cc2)C1,inactive: -2.57%,–
O=C(O)CSc1cccc2cccnc12,inactive: 3.62%,–
Cc1ccccc1OCCn1c(CCNC(=O)C2CCCCC2)nc2ccccc21,inactive: 3.98%,–
Nc1nn(-c2ccccc2)nc1C(=O)OCc1ccccc1,inactive: 16.8%,–
COc1ccc2c(c1)[C@@H]1[C@H](CO2)[C@H](c2ccccc2)[C@]2(C)C(=O)Nc3ccc(C)cc3C(=O)N12,inactive: 1.75%,–
CCC1CC=CC2C1C(=O)N(Cc1ccccc1)C2c1ccc(C(F)(F)F)cc1 (stereo not given),inactive: -12.2%,–
Cc1ccc(OCC(=O)Nc2nnc(S(=O)(=O)N3CCCCCC3)s2)cc1,inactive: -6.83%,–
CCOc1ccccc1CNC(=O)CCCn1ccc2cc(S(=O)(=O)N3CCCC3)ccc21,inactive: 1.06%,–
COc1cccc(C(=O)Nc2nnc(S(=O)(=O)N3CCCC3)s2)c1,inactive: 16.2%,–
Cc1ccc(NS(=O)(=O)c2ccc3c(c2)NC(=O)CO3)cc1C,inactive: -17.4%,–
CC1CCCCN1CCCNC(=O)CN1C(=O)c2cccnc2Oc2ccccc21 (stereo not given),inactive: 26%,–
O=C(O)C1=C[C@H](c2coc3ccccc3c2=O)C[C@H](OCCCCO)O1,inactive: 4.7%,–
CCCCN(CC)CCNC(=O)c1cc2c(=O)n(CC)c3ccccc3c2s1,inactive: 6.34%,–
Cc1nc(SCCOc2ccccc2F)[nH]c(=O)c1Cc1ccccc1,inactive: -5.12%,–
COCCn1c(=NC(=O)c2ccc3c(c2)OCCO3)sc2cc(S(N)(=O)=O)ccc21,–,active: 13 µM
CCOC(=O)c1nc(Nc2ccccc2CC)c2ccccc2n1,–,active: 23.1 µM
O=C(CCCN1C(=O)/C(=C/c2cccs2)SC1=S)Nc1ccccn1,inactive: 21.2%,–

SMILES,"activity change, negative = inhibition",Potency
O=C(CSc1nc(-c2ccc(F)cc2)[nH]c1-c1ccc(F)cc1)Nc1ccc2c(c1)OCO2,–,active: 16.4 µM
CCOC(=O)c1c(CN2CCOCC2)n(C)c2cc(Br)c(O)c(CN(C)C)c12,inactive: 11.7%,–
O=C(c1ccco1)N(Cc1ccc(Cl)cc1)C1CCS(=O)(=O)C1 (stereo not given),–,active: 25.9 µM
CCOC(=O)C1=C(Nc2ccccc2)CC(C)(O)C(C(=O)OCC)C1c1ccc(Cl)cc1 (stereo not given),inactive: -21.4%,–
C[C@@H](C(=O)NCc1ccccc1)[C@@H]1C[C@@]1(C)[C@@H](NC(=O)OCc1ccccc1)c1ccccc1,inactive: -7.73%,–
CCC(C)Nc1nc(C)nc2c1oc1ccccc12 (stereo not given),–,active: 20.6 µM
CCc1nnc(NC(=O)c2cccc(C(=O)Nc3nnc(CC)s3)n2)s1,–,active: 0.259 µM
COc1cc(NC(=O)c2nn(C)c3c2CS(=O)(=O)c2ccccc2-3)cc(OC)c1,inactive: -9.63%,–
CCOC(=O)[C@H]1[C@H]2COc3ccc(Br)cc3[C@H]2N2C(=O)CN(Cc3ccc(Cl)cc3)C(=O)[C@@]12C,–,active: 25.9 µM
COC(=O)C1=C(C(=O)OC)[C@@H]2N(Cc3ccccc3)c3ccccc3[C@@]23C[C@@H](C(=O)OC)N(C(=O)c2cc(C)oc2C)C3=N1,–,active: 23.1 µM
O=C(O)c1ccc(NCc2nc3ccccc3n2CCOc2ccccc2Cl)cc1,inactive: -6.88% [at 9.27 µM],–
COCCn1c(=O)[nH]c2cc(C(=O)N3CCN(c4ccc(Cl)cc4)CC3)ccc2c1=O,inactive: -25.1% [at 9.27 µM],–
COc1ccc(C(F)(F)F)cc1N/C=C\c1nnnn1-c1ccc(C)cc1,inactive: 9.89%,–
C[C@]12C(=O)N(c3cccc(F)c3)C(=O)N1[C@@H]1c3ccccc3OC[C@@H]1[C@H]2c1ccccc1,inactive: 2.53%,–
CC(=O)C[C@@H](O)CC(=O)[C@@H]1OC(=O)[C@@H](C)C/C=C\Cc2ccccc21,inactive: 17.5%,–
COc1ccc(NC(=O)C2CCCN(S(=O)(=O)c3c(C)n[nH]c3C)C2)cc1OC (stereo not given),inactive: -9.14%,–
C[C@H]1CCC[C@@]2(O[C@H](CCO)C[C@H](O)[C@H]2O)O1,inactive: 3.06%,–
CCOCCCNC(=O)c1cc2c(=O)n3ccccc3nc2s1,inactive: 24%,–
CC(=O)N1CCN(c2ccc(NCc3cccc(C)c3)cc2)CC1,–,active: 14.6 µM
O=C1NCCOC(=O)[C@H](Cc2ccc(F)cc2)C/C=C\C[C@H]1CC(=O)N(CCO)Cc1ccccc1,inactive: -15.4%,–
CCN1/C(=C2/OC(=S)N(C)C2=O)Sc2ccccc21,inactive: 4.53%,–
COc1ccc(/C=C/c2ccccc2)cc1[C@H]1[C@H]2C=CC[C@@H](C)[C@@H]2C(=O)N1Cc1ccccc1,inactive: 10.9%,–
CCCCN(CCCC)S(=O)(=O)c1ccc(NC(=O)c2cccs2)cc1,–,active: 18.4 µM
Cc1ccccc1S(=O)(=O)Cc1ccc(C(=O)NC2CCCCC2)o1,inactive: 8.92%,–

SMILES,"activity change, negative = inhibition",Potency
CCOC(=O)[C@@H]1[C@H]2COc3cc(OC)ccc3[C@@H]2N2C(=O)N(c3ccc(F)cc3)C(=O)[C@]12C,inactive: -10.1%,–
COc1ccc(NC(=O)CCS(=O)(=O)c2cccc3nonc23)cc1Cl,inactive: -6.58% [at 9.27 µM],–
COc1ccc(NS(=O)(=O)c2cc([N+](=O)[O-])ccc2N/N=C\c2c(C)[nH]c3ccccc23)cc1,inactive: -12.5%,–
O=C(Nc1cccc(NC(=O)c2ccc(Br)o2)c1)c1ccccc1,inactive: -2.86%,–
CC1=C(CC(=O)O)c2cc(F)ccc2/C1=C\c1ccc(S(C)=O)cc1 (stereo not given),inactive: 3.06%,–
Cc1ccc(NS(=O)(=O)c2ccc3c(c2)NC(=O)CCS3)cc1C,inactive: 0.866%,–
C[C@@H]1CCC[C@@]2(O[C@@H](CCO)C[C@@H](O)[C@@H]2O)O1,inactive: -19.8%,–
Cc1cccc(NC(=O)C2CCN(S(=O)(=O)c3ccc4ccccc4c3)CC2)n1,–,active: 16.4 µM
O=C1N[C@H](Cc2ccccc2)COC(=O)[C@H](Cc2ccc(F)cc2)C/C=C\C[C@@H]1CC(=O)N(CCO)Cc1ccccc1,inactive: -7.6%,–
CCOc1ccc(-c2noc(CSc3nnc(Cc4ccccc4)n3-c3cccc(C)c3)n2)cc1,–,active: 25.9 µM
CCN1C(=O)[C@H]2[C@@H](c3ccc(SC4CCCCC4)cc3)N3CCCC[C@@]3(C(=O)OC)[C@H]2C1=O,inactive: -2.82%,–
C/C=C1\COC(C(=O)NCc2cccc(OC)c2OC)(C(F)(F)F)C=C1C=C1CCCCC1 (stereo not given),inactive: -26.8%,–
C=CCC[C@H](Cc1ccc(F)cc1)C(=O)OC[C@@H](Cc1c[nH]c2ccccc12)NC(=O)[C@@H](CC=C)CC(=O)N[C@H](CO)Cc1ccccc1,inactive: -14.4%,–
C=Cc1c(C)c2cc3[nH]c(cc4nc(cc5nc(cc1[nH]2)C(C)=C5CCC(=O)O)C(CCC(=O)O)=C4C)c(C)c3C=C,inactive: 0.964%,–
CCOc1ccc(S(=O)(=O)N2CCC(C(=O)N3CCCCCC3)CC2)cc1C,–,active: 18.4 µM
O=C(Nc1nnc(S(=O)(=O)Nc2ccccc2)s1)c1ccccc1Cl,inactive: -7.35%,–
COc1ccc2c(c1OC)C(=O)OC2C1c2c(cc3c(c2OC)OCO3)CCN1C (stereo not given),–,inactive
O=S(=O)(c1ccc2c(c1)OCCO2)N1CCCN(S(=O)(=O)c2c(F)cccc2F)CC1,inactive: -11.9%,–
O=C(COc1ccccc1)Nc1nnc(S(=O)(=O)N2CCCC2)s1,inactive: -2.43%,–
COC(=O)c1cc2sccc2n1Cc1nc(-c2ccc(Cl)cc2)oc1C,inactive: 6.25%,–
CCc1ccc2oc(C(=O)Nc3nonc3CC)c(C)c2c1,inactive: 0.717%,–
CSc1ccc2c(c1)C(N1CCN(C)CC1)Cc1ccccc1S2 (stereo not given),inactive: -12.5%,–
